Experimental data from the RNAGym collection of RNA variant scans (doi:10.1073/pnas.2313332121).
Variants at the background level are over-represented here.

B1: TPR 5TU (parent)
chain: GGAUCUUCUCGAUCUAACAAAAAAGACAAAUCUGCCACAAAGCUUGAGAGCAUCUUCGGAUGCAGAGGCGGCAGCCUUCGGUGGCGCGAUAGCGCCAACGUUCUCAACUAUGACACGCAAAACGCGUGCUCCGUUGAAUGGAGUUUAUCAUG

Variants of: B1
Experiment: polymerase ribozyme fitness, log enrichment relative to wild type (log ratio); higher = more active; in vitro selection for triplet polymerase activity
In short: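 The heterodimeric triplet polymerase ribozyme's subunits were each mutagenized into PCR-built libraries and transcribed. Every library was selected once, in triplicate, by annealing with a biotinylated primer, the partner subunit and triplets, incubating frozen at −7 °C, gel-excising extended constructs, capturing on streptavidin beads and running RT-PCR. Input and output libraries were Illumina-sequenced, with genotypes kept only at ≥10 input reads and ≥1 read per output. Fitness, from inverse-variance-weighted replicate averages, is the base-2 logarithm of genotype enrichment over wild-type enrichment.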
With GGAUCUUCUCGAUCUAACAAAAAAGAGAAAUCUGCCACUAAGCUUGAGAGCAUCUUCGGAUGCAGAGGCGGCAGCCUUCGGUGCCGCGAUAGCGCCAACGUUCUCAACUAUGACACGCAAAACGCUUGCUCCGUUGAAUGGAGUUUAUCAUG [C27G A39U G84C G126U] the “polymerase ribozyme fitness (log ratio)” value was at most -4.2.
In the case of GGAUCUUCUCGAUCUAACAAAAAAGAGAAAUCUGCCACAACGCAUGAGAGCAUCUUCGGAUGCAGAGGCGGCAGCCUUCGGUGGCGCGAUAGCGCAAACGUUCUCAGCUAUGACACGCAAAACGCGUGCUCCGUUGAAUGCAGUUUAUCAUG [C27G A41C U44A C96A A107G G141C], the “polymerase ribozyme fitness (log ratio)” value is reported as at most -4.2.
In the case of GGAUCUUCUCGAUCUAACAAAAAAGAGGAAUCUGCCACAAAGCUUGAGAGCAUCUUCGGAUGCAGAGGCGGCAGCCUUCGGUGGCGAGAUAGCGCCAACGUUCUUAACUAUGACAUGCAAAACGCGUGCUCCGUUGAAUGGAGUUUAUCGUG [C27G A28G C87A C105U C116U A150G], the “polymerase ribozyme fitness (log ratio)” value is reported as at most -4.2.
In the case of GGAUCUUCUCGAUCUAACAAAAAAGAGAAAUCUGCGACAAAGCUUGAGAGCAUCUUCGGAUGCAGAGGCGGCAGCCUCCGGUGGCGCGAUAGCGCCAACGUUCUCCACUAUGACACGCAAAACGUGUGCACCGUUGAAUGGAGUUUAUCAUG [C27G C36G U78C A106C C125U U130A], the “polymerase ribozyme fitness (log ratio)” value is reported as at most -4.2.
For GGAUCUUCUCGAUCUAACAAAAAAGAAAAAUCUGCCACAAAGCUUGAGAGCAUCUUCGGAUGCAGAGGCGGCAGCCUUCGGUGGCGCGAUAACGCCAACGUUCUCAACUAUGACACGCAGCACGCGUGCUCCGUUGGAUGGUGUUUAUCAUG [C27A G92A A120G A121C A137G A142U], the “polymerase ribozyme fitness (log ratio)” value was at most -4.2.
In the case of GGAUCUUCUCGAUCUAACAAAAAAGAAAAAUCUGCCACAAAGCUUGAGAGCAUCUUCGGAUGCAGAGGCGUCAGCCUUCGGUGGCGCGAUAGCGCCAACGUUCUCAACUAUGACACGCAAAACGCGUGCUCCGUUGAAUGGAGUUUAUCAUG [C27A G71U], the “polymerase ribozyme fitness (log ratio)” value is reported as at most -4.2.
With GGAUCUUCUCGAUCUAACAAAAAAGAGAAAUCUGCCACAAAGCUUGAGAGCUUCUUCGGAUGCAGAGACGGCAGCCUUCGGUGGCGCGUUAGCCCCAACGUUCUCAACUUUGACACGCAAAACGCGUGCUCCGUUGAAUGGAGUUUAUCAUG [C27G A52U G68A A89U G94C A110U] the “polymerase ribozyme fitness (log ratio)” value was at most -4.2.
With GGAUCUUCUCGAUCUAACAAAAAAGAAAAAUCUGCCACAAAGCUUGAGAGCAUCAUCGGAUGCAGAGGCGACAGCCCUCGGUGGCGCGAUAGCGUCAACGUUCUCAACUAUGCCACGCAAAACGCGUGCUCCGUUGAAUGGAGUUUAUGAUG [C27A U55A G71A U77C C95U A113C C149G] the “polymerase ribozyme fitness (log ratio)” value was at most -4.2.
With GGAUCUUCUCGAUCUAACAAAAAAGAGAAAUCUGCCAUAAAGCUUGAGGGCAUCUUCGGAUGCAGAGGCGACAGCCUUCGGUGGCGCGAUAGCCCCAACGUUCUCAACUAUGACACGCAAAACGCGUGCUCCGUUGAAUGGAGUCUAUCAUG [C27G C38U A49G G71A G94C U145C] the “polymerase ribozyme fitness (log ratio)” value was at most -4.2.
With GGAUCUUCUCGAUCUAACAAAAAAGAGAAAUCUGCCACAAAGUUUGAGAGCAUCUUCGGAUGCAGAGCCGGCAACCUUCGGUGGCGUGGUAGCGCCAACGUUCUCAACUAUGACACGCAAUACGCGUGCUCCGUUGAAUGGAGUUUAUCACG [C27G C43U G68C G74A C87U A89G A121U U151C] the “polymerase ribozyme fitness (log ratio)” value was at most -4.2.
With GGAUCUUCUCGAUCUAACAAAAAAGAAAAAUCUGCCACAAAGCUUGAGAGCAUCUUCGGAUGCAGAGGCGGCAGCCUUCGGUGGCGCGAUAGCGCCAACGUUCUCAACUAUGACACACAAAACGCGUGCUCCGUUGAAUGGAGUUUAUCAUG [C27A G117A] the “polymerase ribozyme fitness (log ratio)” value was -3.86.
In the case of GGAUCUUCUCGAUCUAACAAAAAAGAGAAAUCUGCCACACAGCUUGAGAGCAUCUUCUGAAACAGAGGCGGCAGCCUUCGGUGGCGAGAUAGCGCCAACGUUCUCAACUAUGACACGCAACACGCGUGCUCCGUUGAAUGGAGUUUAUCAUG [C27G A40C G58U U61A G62A C87A A121C], the “polymerase ribozyme fitness (log ratio)” value is reported as at most -4.2.
In the case of GGAUCUUCUCGAUCUAACAAAAAAGAGAACUCUGCCACAAAGCUUGUGAGCAUCUUCGGAUGCAGAGGCGGCAGCCUUCGGUCGCGCGAUAGCGCCAACGUUCUCAACUAUGACAGGCAAAACCCGUGCUCCGUUGAAUGGACUUUAUCAUG [C27G A30C A47U G83C C116G G124C G143C], the “polymerase ribozyme fitness (log ratio)” value is reported as at most -4.2.
In the case of GGAUCUUCUCGAUCUAACAAAAAAGAGUAAUCUGCCACAAAGCUUGAGAGCAUCUUCGGAUGCAGAGGCGGCAGCCUUCGGUGGCGCGAUAGCGCCAACGUUCUCAACUAUGACACGCAAAACGCGUGCUCCGUUGAAUGGAGUUUAUCAUG [C27G A28U], the “polymerase ribozyme fitness (log ratio)” value is reported as at most -4.2.
With GGAUCUUCUCGAUCUAACAAAAAAGAAAAAUCUGCCACAAAGCUUGAGAGCAUCUUCUGAUGCAGAGGCGGCAGCCUUCGGUGGCGCGAUAGCGUAAACGUUCUCAACUAUGACACGCAAAACUCGUGCUCCGUUGAAUGGAGUUUAUCAUG [C27A G58U C95U C96A G124U] the “polymerase ribozyme fitness (log ratio)” value was -4.08.
With GGAUCUUCUCGAUCUAACAAAAAAGAAAAAUCUGCCACAAAGCUUGAGAGCAUCUACGGUUGCAGAGGCGGCAGCCUUCGGUGGCGCGAUAGCGCCAACGUUCUCAACUAUGACACGCAAACCGCGUGCUCCGUUGAAUGGAGAUUAUCAUG [C27A U56A A60U A122C U144A] the “polymerase ribozyme fitness (log ratio)” value was at most -4.2.
With GGAUCUUCUCGAUCUAACAAAAAAGAGAACUCUGCCACAAAGCUUGAGAGCAUCUUCGGAUGCAGGGGCGGCAGCCUUCGGUGUCGCGAUAGCGCCAACGUUCUCAACUAUGACACGCAAAACGCGUGCUCCUUUGAAUGGAGUUUAUCAUG [C27G A30C A66G G84U G133U] the “polymerase ribozyme fitness (log ratio)” value was at most -4.2.
In the case of GGAUCUUCUCGAUCUAACAAAAAAGAAAAAUCUGCCACAAAGCUUGAGAGCAUCGUCCGAUGCAGAGGCGGCAGCCUUCGGUUCCGCGAUAGCGCCAACGUUCUCAACUAUGACUCGCAAAACGCGUGCUCCGUUGAAUGGAGUUUAUCAUG [C27A U55G G58C G83U G84C A115U], the “polymerase ribozyme fitness (log ratio)” value is reported as at most -4.2.
In the case of GGAUCUUCUCGAUCUAACAAAAAAGAAAAAUCUGCCACAAAGCUUGAGAGCAUCUUCGGAUGCAGAGGCGGCAGCCUUCGGUGGCGCGAUAACGCCAACGUUGUCAACUAUGACACGCAAAACGCGUGCUCCGUUGAAUGGAGUUUAUCAUG [C27A G92A C103G], the “polymerase ribozyme fitness (log ratio)” value is reported as at most -4.2.
